# Laboratory results published in PubChem BioAssay AID504332 (National Center for Advancing Translational Sciences (NCATS), 2011).
# The campaign covered roughly 350,000 compounds. About 31,000 (8.9%) were called active. Inconclusive means that the source gave no clear call. Such entries were picked first, then a sample of the others. The call rests on the fitted dose curve; in most records, active means well fitted inhibition curve with a large enough effect; inconclusive means small, poorly fitted or top-dose-only effect; inactive means no such curve, though single readings can be large or run the other way. Where the call is inconclusive, the potency comes from a doubtful curve fit.
# Target: Histone-lysine N-methyltransferase EHMT2 (Homo sapiens) (UniProt Q96KQ7)
# Assay: qHTS Assay for Inhibitors of Histone Lysine Methyltransferase G9a; further: nearly all actives have a fitted effect of over 75% in size
# Conditions: G9a H3K9 monomethylation, AlphaScreen, 2 h; activity, negative = inhibition: at 59 µM (top of the series) unless noted
# Method in brief: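 AlphaScreen detection with an anti-monomethyl H3K9 antibody quantified product after a 2 h room-temperature reaction containing 500 nM biotinylated H3K9 peptide, 20 µM SAM and 20 nM enzyme, which had been preincubated 15 min with compound.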
# On the % scale 0 is the no-effect control and ±100 the full control effect; potency means the concentration at half of the fitted maximal effect; tags describe the fitted curve by direction and shape.
# Sequence of UniProt Q96KQ7 (Q96KQ7 whole entry, looked up): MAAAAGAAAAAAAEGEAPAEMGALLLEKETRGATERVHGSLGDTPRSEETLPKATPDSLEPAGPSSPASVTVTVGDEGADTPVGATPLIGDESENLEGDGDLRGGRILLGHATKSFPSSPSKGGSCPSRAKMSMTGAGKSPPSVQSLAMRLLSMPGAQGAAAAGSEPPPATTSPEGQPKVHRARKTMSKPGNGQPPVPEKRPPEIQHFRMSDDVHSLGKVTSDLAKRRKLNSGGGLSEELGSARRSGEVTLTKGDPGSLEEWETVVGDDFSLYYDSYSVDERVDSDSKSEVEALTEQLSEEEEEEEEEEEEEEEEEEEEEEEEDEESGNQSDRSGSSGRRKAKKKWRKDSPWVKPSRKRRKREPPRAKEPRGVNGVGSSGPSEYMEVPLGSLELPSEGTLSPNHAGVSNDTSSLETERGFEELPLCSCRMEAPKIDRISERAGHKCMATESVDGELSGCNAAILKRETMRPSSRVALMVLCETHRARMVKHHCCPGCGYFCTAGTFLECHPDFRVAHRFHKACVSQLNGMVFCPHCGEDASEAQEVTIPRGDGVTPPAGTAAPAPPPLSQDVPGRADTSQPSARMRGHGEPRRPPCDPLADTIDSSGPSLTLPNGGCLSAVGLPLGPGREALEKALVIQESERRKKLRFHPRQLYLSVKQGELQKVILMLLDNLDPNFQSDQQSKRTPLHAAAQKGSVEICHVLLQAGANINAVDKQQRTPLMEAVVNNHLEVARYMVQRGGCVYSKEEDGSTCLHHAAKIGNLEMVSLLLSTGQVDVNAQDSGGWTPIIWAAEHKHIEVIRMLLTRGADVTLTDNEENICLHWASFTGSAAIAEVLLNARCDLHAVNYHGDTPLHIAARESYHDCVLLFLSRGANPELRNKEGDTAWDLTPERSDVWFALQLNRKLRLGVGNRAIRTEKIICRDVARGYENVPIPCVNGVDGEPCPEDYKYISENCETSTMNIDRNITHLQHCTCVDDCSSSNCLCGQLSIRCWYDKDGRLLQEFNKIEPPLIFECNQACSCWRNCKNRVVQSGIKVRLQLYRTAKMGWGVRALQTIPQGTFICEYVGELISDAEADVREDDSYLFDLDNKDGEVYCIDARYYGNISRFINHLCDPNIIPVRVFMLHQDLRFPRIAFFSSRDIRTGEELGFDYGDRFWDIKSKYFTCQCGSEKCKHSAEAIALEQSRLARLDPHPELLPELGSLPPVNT
SMILES,Potency,"activity, negative = inhibition"
O=C(O)c1ccc(Cl)c(S(=O)(=O)Nc2ccccc2N2CCOCC2)c1,"inconclusive: 79.4 µM [inhibitor, single point]",
COCCCn1c(SCc2nnc(-c3ccccc3)o2)nc2sc3c(c2c1=O)CCC3,,inactive: -3.68% [at 102 µM]
O=C(CSc1nnnn1-c1ccc2c(c1)OCCO2)c1cccc2c1OCCO2,"inconclusive: 56.2 µM [inhibitor, partial curve, poor fit]",
C#CCSc1nnc(-c2ccc(OC)cc2)o1,active: 44.7 µM,
CN(CCOC(=O)c1ccccc1)Cc1ccccc1,,inactive: 7.21%
CCOC(=O)c1sc2nc(-c3ccccc3)ccc2c1N,,inactive: 10.6%
Cc1c(NC(=O)COC(=O)/C=C/c2ccccc2Br)c(=O)n(-c2ccccc2)n1C,,inactive: -4.5% [at 0.501 µM]
Cc1ccc(NC(=O)C2CCCN2S(=O)(=O)c2cccc3nsnc23)c(Br)c1 (stereo unspecified),"inconclusive: 28.2 µM [inhibitor, single point]",
CCSc1nc2c(c(=O)[nH]c(=O)n2C)n1C/C=C(/C)Cl,,inconclusive: -70.5% [inhibitor]
CCOc1ccc(NC(=S)N2CCCN(Cc3cc(C)ccc3C)C2)cc1,,inactive: 4.63%
Cc1ccc2cccc(NC(=S)NC(=O)c3ccccc3)c2n1,"inconclusive: 39.8 µM [inhibitor, single point]",
COc1ccc(/C=N/NC(=O)CCOc2ccccc2C)cc1OC,"inconclusive: 7.94 µM [inhibitor, partial curve, poor fit]",
Cc1nnc2n1N=C(c1ccc(OC(F)F)cc1)C(C)S2 (stereo unspecified),"inconclusive: 89.1 µM [inhibitor, single point]",
CC1CCc2[nH]c3ccc(C(=O)NCC4CCCO4)cc3c2C1 (stereo unspecified),active: 44.7 µM,
COc1cc(NS(=O)(=O)c2ccc(NS(=O)(=O)c3ccccc3)cc2)nc(OC)n1,active: 56.2 µM,
O=C(OCC(=O)N1CCN(c2ccccc2)CC1)c1cc(Cl)ccc1[N+](=O)[O-],"inconclusive: 8.91 µM [inhibitor, partial curve, poor fit]",
C=CCN1C(=O)C2(NC(=O)c3ccccc3N2)c2ccccc21 (stereo unspecified),,inactive: -0.251% [at 102 µM]
O=C(O)CCc1ccc(-c2ccccc2)o1,"inconclusive: 3.98 µM [inhibitor, single point]",
Cc1ccc(CC2SC(=O)NC2=O)cc1Cl (stereo unspecified),"inconclusive: 31.6 µM [inhibitor, single point]",
COC1CCN(Cc2cn(Cc3ccccc3)nc2-c2cc3ccccc3o2)CC1,"inconclusive: 39.8 µM [inhibitor, single point]",
Cc1cccc(CN2C(=O)NC(c3ccccc3)(c3ccccc3)C2=O)c1,"inconclusive: 89.1 µM [inhibitor, single point]",
Cc1ccc(C(=O)OCC(=O)Nc2sc3c(c2C#N)CCCCC3)cc1NC(=O)c1ccco1,,inactive: -10.5%
CC(=O)C1=C(C)OC(N)=C(C#N)C1c1cccc([N+](=O)[O-])c1 (stereo unspecified),active: 44.7 µM,

SMILES,Potency,"activity, negative = inhibition"
CC(C)CCn1c(=O)c2ccccc2n2c(=S)[nH]nc12,active: 1.41 µM,
O=C(c1cccc(N2C(=O)C3CC=CCC3C2=O)c1)N1CCCCCC1 (stereo unspecified),,inactive: 9.04%
Cc1[nH]c(=O)[nH]c(=O)c1/C=N/NC(=O)[C@H](C)N,"inconclusive: 1.12 µM [inhibitor, full curve, poor fit]",
CCOP(=O)(c1ccccc1)c1nc(-c2ccccc2Cl)oc1N1CCCCC1 (stereo unspecified),"inconclusive: 35.5 µM [inhibitor, partial curve, poor fit]",
COc1ccc(/C(=C/Nc2cccc(Br)c2)C(C)=O)cc1OC,"inconclusive: 89.1 µM [inhibitor, single point]",
COc1ccc(-c2noc(CN3CCCC(OCc4ccccn4)C3)n2)cc1 (stereo unspecified),active: 50.1 µM,
Cn1nnnc1SCC(=O)N1CCN(c2ccccc2)CC1,"inconclusive: 10 µM [inhibitor, partial curve]",
CCOC(=O)c1c(C)[nH]c(C(=O)NNC(=O)c2ccc(C(C)(C)C)cc2)c1C,,inactive: -5.33% [at 102 µM]
CN(C)c1ccc(NC(=O)CCn2c(=S)oc3ccccc32)cc1,"inconclusive: 2.82 µM [inhibitor, full curve, poor fit]",
COc1ccccc1N1CCN(C(=O)C2Cc3ccccc3CN2C(=O)c2ccco2)CC1 (stereo unspecified),,inactive: 12.2%
O=C(NCc1ccccn1)c1ccc(CS(=O)(=O)Cc2ccc(Cl)cc2)o1,,inactive: -14.5% [at 102 µM]
Cc1cccc(NC(=O)CS(=O)(=O)c2cn(CC(=O)N3CCOCC3)c3ccccc23)c1,"inconclusive: 89.1 µM [inhibitor, single point]",
COc1ccc(OCC(=O)Nc2ccc(S(=O)(=O)N3CCN(C)CC3)cc2)cc1,,inactive: -32.3% [at 102 µM]
CCN(CC)S(=O)(=O)c1ccc(O)c(NC(=O)c2cc(-c3cc(OC)c(OC)c(OC)c3)nc3ccccc23)c1,active: 7.94 µM,
COc1cc(C(=O)OCC(=O)NC23CC4CC(CC(C4)C2)C3)cc(OC)c1OC,"inconclusive: 79.4 µM [inhibitor, single point]",
NS(=O)(=O)c1ccc(NC(=O)CSc2nnc(Cc3cccs3)n2-c2ccccc2)cc1,,inactive: 92.8%
O=C(c1ccco1)N1CCN(Cc2cccc(F)c2)CC1,"inconclusive: 0.447 µM [inhibitor, partial curve, poor fit]",
Cc1cc(C(=O)NNC(=O)c2cccc([N+](=O)[O-])c2)n[nH]1,"inconclusive: 14.1 µM [inhibitor, single point]",
Cc1cc(O)c(C(c2ccccc2)N2CCN(c3ccccc3F)CC2)c(=O)n1Cc1ccco1 (stereo unspecified),"inconclusive: 39.8 µM [inhibitor, single point]",
O=C(O)c1ccc2c(c1)C(=O)/C(=C\c1ccco1)C2=O,active: 8.91 µM,
CCNC(=O)C1=C(O)c2sccc2N(C)S1(=O)=O,"inconclusive: 79.4 µM [inhibitor, single point]",
CCN(CC(=O)Nc1cccc(OC)c1)C(=O)c1cccc(S(=O)(=O)N2CCc3ccccc32)c1,"inconclusive: 7.08 µM [inhibitor, single point]",
Cc1ccc2nsnc2c1S(=O)(=O)N1CCN(Cc2ccc3c(c2)OCO3)CC1,"inconclusive: 35.5 µM [inhibitor, partial curve, poor fit]",
